The source of these data is PubChem BioAssay AID463173 (ICCB-Longwood Screening Facility, Harvard Medical School, 2010).

Hit rate of the full screen: of about 52,000 compounds, about 4,300 (8.3%) were called active. Cut-off read from the data, not from the text of the source: active = survival mostly below about 52% (no sharp cut-off); inactive = mostly above about 56%. The list shows a part of the results.

The subject of this assay is DeltatarO mutant. Briefly: growth inhibition of S. aureus wild type versus tarO mutant, primary screen, teichoic acid synthesis inhibitors, RN4220, OD600 (AID 463173). The following applies: OD600, 18 h, stronger effect = lower value, screened at 18.75 µg/mL (by protocol).
On to `CCN(CC)C(=O)c1sc(NC(=O)c2nc3ncccn3n2)c(C(=O)OC)c1C`, for which the survival was inactive: 137%. Consider `Cn1c(-c2ccc3c(c2)OCO3)cnc1NCc1cc(Cl)ccc1O`, for which the survival is inactive: 70%. Regarding `O=C(CSc1nc(-c2cccc(Cl)c2)nc2cc(=O)[nH]n12)Nc1ccccc1`, the survival was inactive: 71%. As to `CC(=O)c1ccc(N2CCN(c3ccc(NC(=O)c4cccs4)cc3C(=O)O)CC2)cc1`, the survival was inactive: 68%. As for `CC(C(=O)NCc1ccccc1Cl)n1ccc2cc(S(=O)(=O)N3CCCCC3)ccc21` (centres undefined), the figure is inactive: 94%. As to `COc1cc(C2C(C#N)=C(N)Oc3n[nH]c(C(F)(F)F)c32)ccc1OCC(N)=O` (centres undefined), the survival was inactive: 72%. `Cc1ccc(NC(=O)CSc2nnc3nc(C)cc(C)n23)cc1`: the survival was inactive: 51%. As for `Cc1ccc(-n2ncc(C(=O)NCCCN3CCCCC3)c2C2CCN(C(=O)OC(C)(C)C)CC2)c(C)c1`, the figure is active: 46%.

`O=C(C1c2ccccc2Oc2ccccc21)N1CCCCC1`: the survival was inactive: 81%. With `CCc1cccc(C)c1NC(=O)CCCn1c(=O)c2cccn2c2cccnc21` the figure was inactive: 87%; with `COc1ccc(Cn2c(C(=O)O)c(CNCC(C)c3ccccc3)c3ccc(OC)cc32)cc1` (centres undefined), inactive: 68%; with `Cc1ccc(C)c(N2CCN(C(=O)Nc3cn(CC(C)C)c(=O)c4ccccc34)CC2)c1`, inactive: 124%. `COc1ccc(NC(=O)CN2C(=O)C(c3ccc(C(C)(C)C)cc3)=NC2(C)C)cc1Cl`: the survival was inactive: 108%. With `CCCCCC(=O)N1c2ccccc2C(C)(c2ccccc2)CC1(C)C` (centres undefined) the figure was active: -2%. As for `O=C(c1ccccc1Br)N(Cc1ccco1)C1CCS(=O)(=O)C1` (centres undefined), the figure is inactive: 82%; as for `O=C(c1ccc2c(c1)N(Cc1ccccc1)C(=O)c1ccccc1S2(=O)=O)N1CCCC1`, inactive: 72%; as for `O=C(N/N=C/c1ccc(-c2ccc(Cl)c(C(=O)O)c2)o1)c1ccncc1`, inactive: 68%.

Take `CCC(Sc1nc2c(sc3ccccc32)c(=O)n1CCc1ccccc1)C(=O)N(CC)CC` (centres undefined): the survival is inactive: 54%. Turning to `COc1cccc(NC(=O)CSc2nnc(COc3ccc(Cl)cc3)o2)c1`, the survival was active: 57%. Regarding `COc1ccc(NC(=O)NCCc2c(C)nn(C)c2C)c(OC)c1`, the survival is inactive: 90%. As for `Cc1nnc2c(N3CCN(c4ccccc4F)CC3)nc3ccccc3n12`, the survival is inactive: 67%. For `CCOC(=O)c1cc(-c2ccc(C)cc2)n(CCC(=O)Nc2nc3c(C)cccc3s2)c1C`, the survival was inactive: 83%. With `Cc1cc(-n2c(SCC(=O)NCc3ccccc3)nc3ccsc3c2=O)ccc1Cl` the figure was inactive: 87%; with `Cc1cccc(Cc2cnc(NC(=O)C3Cc4ccc(C)cc4C(=O)O3)s2)c1` (centres undefined), inactive: 85%. Consider `COc1ccccc1N1CCN(C(=O)C2CCN(S(=O)(=O)c3c(C)noc3/C=C/c3ccc(C)cc3)CC2)CC1`, for which the survival is inactive: 78%. For `COc1cccc(Cn2c(=O)n(CC3CCC(C(=O)N4CCCCC4)CC3)c(=O)c3sccc32)c1` (centres undefined), the survival was inactive: 55%. For `CCOC(=O)N1CCN(Cc2nc3cc(NC(C)=O)ccc3n2C(C)C)CC1`, the survival is inactive: 89%. As for `Cc1cc(C)cc(-n2c(SCC(=O)NCc3ccco3)nc3c([nH]c4ccccc43)c2=O)c1`, the survival is inactive: 100%.

For `CC(C)NC(=O)CCn1c(SCc2c(F)cccc2Cl)nc2c(sc3ccccc32)c1=O`, the survival was inactive: 67%. Regarding `COc1cc(CNc2ccc3[nH]c(=O)[nH]c3c2)ccc1OCc1ccc(F)cc1Cl`, the survival was inactive: 89%.

As to `COC(=O)c1ccc2c(=O)n3nc(Nc4ccc(F)cc4F)sc3nc2c1`, the survival was inactive: 88%. `COc1ccc(CN2CCc3c(c(=O)n4ncc(C(=O)N5CCN(c6ccccc6F)CC5)c4n3C)C2)cc1`: the survival was inactive: 88%. With `Cc1cccc(N2CCN(C(=O)c3nn(C)c4c3CS(=O)(=O)c3ccccc3-4)CC2)c1C`, the survival was inactive: 67%. As for `CS(=O)(=O)N(Cc1ccccc1)c1ccc(C(=O)Nc2cccc(Cl)c2)cc1`, the survival was active: 36%. With `COc1ccc(CNC(=O)c2ccc3c(O)c(S(=O)(=O)c4ccccc4)c(=O)[nH]c3c2)cc1` the figure was inactive: 99%; with `COc1ccc(NC(=O)c2c(NC(=O)C(F)(F)F)sc3c2CCCCC3)cc1`, active: 2%. Consider `CCCCC1CCC(C(=O)N2CC(=O)Nc3ccc(C)cc3C2c2ccc(F)cc2)CC1` (centres undefined), for which the survival was inactive: 126%.

As to `COc1ccc(Cn2ccc3nc(C)c(C(=O)N4CCN(c5cccc(OC)c5)CC4)cc3c2=O)cc1`, the survival was inactive: 81%. Consider `O=C(CSc1nnc(Cc2csc(Nc3cccc(Cl)c3)n2)o1)c1ccc2c(c1)OCCO2`, for which the survival was inactive: 99%.

Turning to `CCN(C(=O)CCc1nc(-c2ccc(C)cc2)no1)c1cccc(C(F)(F)F)c1`, the survival is active: -5%. As for `CCOC(=O)c1c(C)[nH]c(CCC(=O)Nc2ccccc2C(F)(F)F)c1C`, the figure is inactive: 71%. In the case of `CCc1ccc(NC(=O)CSc2nnc3[nH]c(=O)cc(-c4ccccc4)n23)cc1`, the survival is inactive: 100%. Consider `CCCS(=O)(=O)N1CC(=O)N(c2cccc(F)c2)C(C)(C(=O)NC2CCCCCC2)C1` (centres undefined), for which the survival is inactive: 83%. With `COc1ccc(C(=O)Nc2ccc(S(=O)(=O)Nc3cc(C)nc(C)n3)cc2)cc1` the figure was inactive: 56%. With `O=C(CCS(=O)(=O)c1cc2c(cc1Cl)NC(=O)CO2)NCCc1ccccc1` the figure was inactive: 95%.

Consider `COc1cccc2cc(C(=O)Nc3ccc(CC(=O)O)cc3)c(=O)oc12`, for which the survival was inactive: 66%. Consider `Cc1ccc(NC(=O)CSc2nc(-c3ccco3)cc(C(F)(F)F)n2)c(C)c1`, for which the survival is active: 63%. As to `CCOc1ccc(S(=O)(=O)N2Cc3ccccc3CC2C(=O)Nc2ccc(NC(C)=O)cc2)cc1` (centres undefined), the survival is inactive: 69%.

In the case of `Cc1ccn2c(NC3CCCCC3)c(C)nc2c1`, the survival was inactive: 97%. Take `CCCCN1CC(c2nc3ccccc3n2CCCCOc2cc(C)cc(C)c2)CC1=O` (centres undefined): the survival was active: 33%. As for `COc1ccc(-c2cc(C(=O)Nc3sc4c(c3C(N)=O)CCCC4)no2)cc1`, the figure is inactive: 56%. Turning to `CCN(CC)CCNC(=O)C(=O)Nc1c2c(nn1-c1ccc(F)cc1)CSC2`, the survival is inactive: 84%. With `O=C(Nc1cccc(C(F)(F)F)c1)Nc1nnc(N2CCCCCC2)s1` the figure was inactive: 85%; with `COCCCNC(=O)CN1C(=O)c2cccnc2Sc2ccccc21`, inactive: 84%; with `CC(=O)c1cccc(NC(=O)CN2C(=O)CCc3cc(S(=O)(=O)N4CCCCC4)ccc32)c1`, inactive: 70%. With `COc1ccccc1N1CCN(C(=O)c2cc(-c3ccc(C)c(F)c3)on2)CC1` the figure was inactive: 66%; with `Cc1c(C(=O)OCCOc2ccccc2)[nH]c2c1C(=O)CC(c1ccc(C(C)(C)C)cc1)C2` (centres undefined), inactive: 70%.

As to `CCn1c2c(c(=O)n3ncc(C(=O)Nc4cc(Cl)ccc4OC)c13)CN(Cc1ccc(OC)cc1)CC2`, the survival was inactive: 89%. With `O=C(NCc1ccc(Cl)cc1)C1CCN(c2nn3cc(-c4ccc(F)cc4)nc3s2)CC1` the figure was inactive: 93%. Consider `CCCNC(=O)CCC(=O)N1Cc2cccc(OC)c2Oc2ncccc21`, for which the survival was inactive: 102%. Consider `CC1CN(C(=O)NCc2ccccc2)c2cc(Cl)ccc2O1` (centres undefined), for which the survival is inactive: 49%. As for `Cc1cccc(NC(=O)CSc2nc3ccc(NC(=O)COc4ccccc4C)cc3s2)c1`, the survival was inactive: 69%. On to `CCCCN1C(=O)c2ccc(Br)cc2C1=O`, for which the survival is inactive: 102%. As to `O=c1c2ccccc2ncn1-c1ccc(F)cc1`, the survival is inactive: 84%.

`Cc1ncc(CO)c2c1Oc1nc(-c3ccc(Cl)cc3)nc(SCC(=O)N3CCCCC3)c1C2`: the survival is active: 48%.

`O=C(Nc1nccs1)c1ccc(-c2ccc(Cl)cc2)o1`: the survival was active: 35%. As for `Cc1cccc(CSc2nc3c(sc4ccccc43)c(=O)n2CCC(=O)NC(C)C)c1`, the figure is inactive: 103%.

Consider `COc1ccc(Cl)cc1NC(=O)c1cc(-c2ccc3c(c2)OCO3)on1`, for which the survival is inactive: 60%. As for `COc1ccc(NC(=O)c2nc(S(C)(=O)=O)ncc2N(Cc2ccc(C)cc2)Cc2ccco2)cc1Cl`, the figure is inactive: 52%; as for `COc1cccc(CNC(=O)c2cc(-c3ccc(Cl)s3)nc3ccccc23)c1`, inactive: 94%; as for `CCCCc1cc(=O)oc2cc(C)c3c(C(C)(C)C)coc3c12`, inactive: 102%. In the case of `COc1ccc(C)cc1NC(=O)N1CCN(S(=O)(=O)c2ccc3c(ccn3C)c2)CC1`, the survival is inactive: 49%. Consider `COc1ccc(CNC(=O)CN2C(=O)CC(c3ccc(C)c(C)c3)=Nc3ccccc32)cc1`, for which the survival is inactive: 77%. `COc1ccc(C(=O)NCCn2cc(SCc3c(F)cccc3Cl)c3ccccc32)cc1`: the survival was inactive: 51%. As for `Cc1ccc(-n2ncc3c(NC4CCCCCC4)ncnc32)cc1`, the survival was inactive: 66%. Turning to `O=c1[nH]c2cc(Br)ccc2n2cccc12`, the survival was inactive: 67%. In the case of `COc1cc(C)c(N)cc1C(C)C`, the survival was inactive: 105%. As for `Cc1cc(C)c(-c2n[nH]c3c2C(c2ccccc2F)N(Cc2ccco2)C3=O)c(O)c1` (centres undefined), the figure is active: 2%. Turning to `O=C(c1cnc(N2CCOCC2)c2ccccc12)N1CCN(c2ccccc2)CC1`, the survival was inactive: 95%.

As for `CCCCc1nnc(SCc2cc(=O)c3cc(F)ccc3[nH]2)n1C`, the survival was inactive: 83%. `COc1ccc(-c2cc(C(F)(F)F)nc(SCCC(=O)Nc3ccc(OC)c(OC)c3)n2)cc1`: the survival was active: 40%. As for `Cc1ccc(NC(=O)c2sc3nc(-c4cccs4)ccc3c2N)cc1F`, the survival is inactive: 53%.

For `O=C(NC12CC3CC(CC(C3)C1)C2)c1cncc(O)c1`, the survival was inactive: 90%. In the case of `CCN(CC)C(=O)c1c(NC(=O)c2cccc(C)c2)sc2c1CCC(C)C2` (centres undefined), the survival is active: -1%. Regarding `CCN1CCC(N(Cc2ccc3c(c2)OCO3)C(=O)Nc2cc(F)ccc2F)CC1`, the survival was inactive: 81%. On to `CC(C)(C)NC(=O)C1CCN(c2nc3ccccc3nc2C(F)(F)F)CC1`, for which the survival was inactive: 63%. For `CCC(CC)c1nnc(NC(=O)CS(=O)(=O)Cc2ccccc2)s1`, the survival was inactive: 70%.

As for `COc1ccc(OC)c2sc(N3CCN(C(=O)c4ccco4)CC3)nc12`, the survival is inactive: 87%. For `COc1cc(NC(=O)N2CCc3c(sc4c3CCCC4)C2c2ccccc2)cc(OC)c1OC` (centres undefined), the survival was inactive: 103%.
